Measurements: PMC6459531
No constants are given. Whether binding was seen depends on the method and setting. Some results given as binding are weak or reduced against the parent protein; the word gives no strength.

B1: Mal3 (1–197) (domain or fragment, UniProt Q10113 1-197)
chain: MSESRQELLAWINQVTSLGLTRIEDCGKGYAMIQIFDSIYQDIPLKKVNFECNNEYQYINNWKVLQQVFLKKGIDKVVDPERLSRCKMQDNLEFVQWAKRFWDQYYPGGDYDALARRGNRGPANTRVMNSSAGATGPSRRRQVSSGSSTPSMTKSSANNNNVSSTANTAAVLRAKQAQQQITSLETQLYEVNETMFG
B2: Mal3 (1–241) (domain or fragment, UniProt Q10113 1-241)
chain: MSESRQELLAWINQVTSLGLTRIEDCGKGYAMIQIFDSIYQDIPLKKVNFECNNEYQYINNWKVLQQVFLKKGIDKVVDPERLSRCKMQDNLEFVQWAKRFWDQYYPGGDYDALARRGNRGPANTRVMNSSAGATGPSRRRQVSSGSSTPSMTKSSANNNNVSSTANTAAVLRAKQAQQQITSLETQLYEVNETMFGLERERDFYFNKLREIEILVQTHLTTSPMSMENMLERIQAILYST
B3: Mal3 (1–308: full-length) (protein, UniProt Q10113 1-308)
chain: MSESRQELLAWINQVTSLGLTRIEDCGKGYAMIQIFDSIYQDIPLKKVNFECNNEYQYINNWKVLQQVFLKKGIDKVVDPERLSRCKMQDNLEFVQWAKRFWDQYYPGGDYDALARRGNRGPANTRVMNSSAGATGPSRRRQVSSGSSTPSMTKSSANNNNVSSTANTAAVLRAKQAQQQITSLETQLYEVNETMFGLERERDFYFNKLREIEILVQTHLTTSPMSMENMLERIQAILYSTEDGFELPPDQPADLTTALTDHDTNNVAEEAQMTDLKDSETQRVPSAPDFVHARLQSLEVDDDENITF
B4: Mal3 (1–218) (domain or fragment, UniProt Q10113 1-218)
chain: MSESRQELLAWINQVTSLGLTRIEDCGKGYAMIQIFDSIYQDIPLKKVNFECNNEYQYINNWKVLQQVFLKKGIDKVVDPERLSRCKMQDNLEFVQWAKRFWDQYYPGGDYDALARRGNRGPANTRVMNSSAGATGPSRRRQVSSGSSTPSMTKSSANNNNVSSTANTAAVLRAKQAQQQITSLETQLYEVNETMFGLERERDFYFNKLREIEILVQT
B5: Mal3 (135–308) (domain or fragment, UniProt Q10113 135-308)
chain: TGPSRRRQVSSGSSTPSMTKSSANNNNVSSTANTAAVLRAKQAQQQITSLETQLYEVNETMFGLERERDFYFNKLREIEILVQTHLTTSPMSMENMLERIQAILYSTEDGFELPPDQPADLTTALTDHDTNNVAEEAQMTDLKDSETQRVPSAPDFVHARLQSLEVDDDENITF
B6: Mal3 (1–143) (domain or fragment, UniProt Q10113 1-143)
chain: MSESRQELLAWINQVTSLGLTRIEDCGKGYAMIQIFDSIYQDIPLKKVNFECNNEYQYINNWKVLQQVFLKKGIDKVVDPERLSRCKMQDNLEFVQWAKRFWDQYYPGGDYDALARRGNRGPANTRVMNSSAGATGPSRRRQV

Assays:
Assay in all cases: two-hybrid; Matchmaker Two-Hybrid System 3 (Clontech); pGBKT7 (Gal4-BD) and pGAD424 (Gal4-AD) fusions co-introduced into S. cerevisiae AH109; interaction read as growth on SC-LWH (no histidine), 3-4 days at 30 °C
[1] = target: T1, Mal3 (135–308) (S. pombe) (UniProt Q10113)
T1 sequence: B5 chain

[2] = target: T2, Mal3 (1–241) (S. pombe) (UniProt Q10113)
T2 sequence: B2 chain

[3] = target: T3, Mal3 (1–308: full-length) (S. pombe) (UniProt Q10113)
T3 sequence: B3 chain

[4] = target: T4, Mal3 (1–218) (S. pombe) (UniProt Q10113)
T4 sequence: B4 chain

[5] = target: T5, Tip1 (S. pombe) (UniProt P79065)
T5 sequence: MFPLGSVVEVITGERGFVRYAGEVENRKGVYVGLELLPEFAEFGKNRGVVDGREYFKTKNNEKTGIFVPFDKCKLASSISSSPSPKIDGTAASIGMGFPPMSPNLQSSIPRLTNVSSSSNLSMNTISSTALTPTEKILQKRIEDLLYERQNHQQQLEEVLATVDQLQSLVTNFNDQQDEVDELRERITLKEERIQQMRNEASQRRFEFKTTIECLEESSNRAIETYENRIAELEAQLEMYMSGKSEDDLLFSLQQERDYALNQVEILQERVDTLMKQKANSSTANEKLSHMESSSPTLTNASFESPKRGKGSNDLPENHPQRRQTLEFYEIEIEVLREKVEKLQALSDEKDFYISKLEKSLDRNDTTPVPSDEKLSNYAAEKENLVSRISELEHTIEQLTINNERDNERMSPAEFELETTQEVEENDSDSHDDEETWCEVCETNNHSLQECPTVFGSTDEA

[6] = target: Mal3 (1–143) (S. pombe) (UniProt Q10113)

Binder | binding [1] | binding [2] | binding [3] | binding [4] | binding [5] | binding [6]
B1 | binds | binds | binds | binds |  | 
B2 | binds |  | binds |  |  | 
B3 |  |  |  |  | binds | 
B4 | binds | binds | binds |  |  | 
B5 |  |  | binds |  |  | 
B6 |  |  |  |  | no binding | no binding
